Reference: article PMC12136788
This is one part of the list.

T1: UNK ZnF1-6 (called full-length) (human, UniProt Q9C0B0 30-357)
T1 sequence: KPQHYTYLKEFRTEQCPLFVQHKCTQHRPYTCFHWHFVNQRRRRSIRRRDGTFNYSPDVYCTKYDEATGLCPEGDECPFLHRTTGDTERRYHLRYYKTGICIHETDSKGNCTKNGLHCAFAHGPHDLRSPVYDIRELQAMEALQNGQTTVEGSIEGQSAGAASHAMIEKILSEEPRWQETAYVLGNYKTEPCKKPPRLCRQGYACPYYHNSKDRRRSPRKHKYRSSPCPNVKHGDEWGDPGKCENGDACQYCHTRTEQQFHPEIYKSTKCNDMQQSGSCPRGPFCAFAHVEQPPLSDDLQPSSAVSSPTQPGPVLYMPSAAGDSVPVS

B1: chr7:4859899:4861810:-|CDS|ENSG00000218823|control|control|control (ssRNA)
RNA: GGGAGUUCUACAGUCCGACGAUCUCUGUGCCUUCAUCUACUAGCACUAUGAAGACAGGCCCAUUGAUUAGCAGUUCUCAGGGUAGAAACAGUCCUGCCUUGGCUGUAAUGACAGCAUCUGUGGCUAACAUACAGGCUACUGAACAACAGAGGAUUGAGCAUCA
B2: chr7:20410151:20410448:+|3pUTR|ENSG00000105855|msi1|FALSE|unique (ssRNA)
RNA: GGGAGUUCUACAGUCCGACGAUCACUAGUGUCGUUGUAGCACUUUACUGUAAUAUAUAACUUAUUUAGAUCAGCAUAGAAUGUAGAUCCUCUGAAGAGCACUGAUUACACUUUACAGGUACCUGUUAUCCCUACGCUUCCCAGCAACAGAGGAUUGAGCAUCA
B3: chr1:90712314:90712624:-|CDS|ENSG00000143032|control|control|control (ssRNA)
RNA: GGGAGUUCUACAGUCCGACGAUCUCCAGCACCCCAUCCCCAGCUGCAGCGGCCCCUGGUGCCCCGUGUGCUCAUCCACGGCCUAGGGCCUGGGGGACAGCCAGCCCUUAAUCCAUUGUCCAGCCCCAUCCCAGGCACCCCACACAACAGAGGAUUGAGCAUCA
B4: ENSG00000107863:be:win_6351|3pUTR|ENSG00000107863|bound_else_gene|NA|bound_elsewhere_windowed (ssRNA)
RNA: GGGAGUUCUACAGUCCGACGAUCGAACUUCCAUUCUUUAGUCAUUCCAGGUGGAUCUGAGUUUUAUAUUCAAACUUUUAAUACAGUUUUUGAGUUUUGUGUGACUUGAAUUUUUAAUCUUUCUGUAAAAUACGUAACUUAAAUCAACAGAGGAUUGAGCAUCA
B5: ENSG00000070961:be:win_451|CDS|ENSG00000070961|bound_else_gene|NA|bound_elsewhere_windowed (ssRNA)
RNA: GGGAGUUCUACAGUCCGACGAUCACUGGUUGGAUUGAAGGAGCUGCAAUCCUCUUGUCUGUAGUGUGUGUGGUGUUAGUAACAGCUUUCAAUGACUGGAGUAAGGAAAAACAGUUUAGAGGUUUGCAGAGCCGAAUUGAACAACAACAGAGGAUUGAGCAUCA
B6: chr4:68227913:68228072:-|CDS|ENSG00000185873|control|control|control (ssRNA)
RNA: GGGAGUUCUACAGUCCGACGAUCUGAUUCUGGUGGACCACUAGCUUACCCUGAUUCCAGAAAUAUCUGGCAUCUUGUUGGAAUAGUAAGCUGGGGUGAUGGAUGUGGUAAAAAGAAUAAGCCAGGUGUCUAUACUCGAGUGACCAACAGAGGAUUGAGCAUCA
B7: chr8:103332422:103332528:+|3pUTR|ENSG00000164930|msi1|FALSE|unique (ssRNA)
RNA: GGGAGUUCUACAGUCCGACGAUCUUUUUUAACAUUUAGAAUAUUACAUUUUGUAUUAUACAGUACCUUUCUCAGACAUUUUGUAGAAUUCAUUUCGGCAGCUCACUAGGAUUUUGCUGAACAUUAAAAAGUGUGAUAGCGAUACAACAGAGGAUUGAGCAUCA
B8: chr15:60347444:60347559:-|3pUTR|ENSG00000182718|msi1_unk|total|mutant (ssRNA)
RNA: GGGAGUUCUACAGUCCGACGAUCUAACAGUCCCCGUGGCCAUCCCUGUGAGGGUGACGUCCGCAUUACCCCCAACCUCAUUUCCGUUGCCUAAGCAUUGCCUGGCCUUCCUGUCCCGUCUCUCCUGUAAGCCAAAGAAAUGAACAACAGAGGAUUGAGCAUCA
B9: chr14:51255895:51255996:+|3pUTR|ENSG00000139921|msi1_unk|FALSE|overlapping (ssRNA)
RNA: GGGAGUUCUACAGUCCGACGAUCGUGAAUCCAUUAGAUUUACAGUAUCGUAAUAUACAAGUUUUCUUUAAAGCCCUCUCCUUUAGAAUUUAAAAUAUUGUACCAUUGAAGAGUUUGGAUGUGUAACUUGUGAUGCCUUAGAAACAACAGAGGAUUGAGCAUCA
B10: chr2:216672581:216672718:-|3pUTR|ENSG00000115461|msi1|FALSE|unique (ssRNA)
RNA: GGGAGUUCUACAGUCCGACGAUCCACUCCACCAGUCCCCGGUCGCCAGCCGGAGUCUCCUCUCUACCGCCACUGUCACACCGUAGCCCACAUGGAUAGCACAGUUGUCAGACAAGAUUCCUUCAGAUUCCGAGUUGCCUACCGCAACAGAGGAUUGAGCAUCA
B11: chr15:83017406:83017507:-|3pUTR|ENSG00000064726|msi1|FALSE|unique (ssRNA)
RNA: GGGAGUUCUACAGUCCGACGAUCGGCCUAAUAAAAUGCCCAAGAAAAUAUUCAGUGCAUUUAUAGAGAAGGAUAUUUUGUAGUAGUAUAGUAAUGUGUUAUGUAGUACAGUUUUAAAGCUAUAAAUGGAAUUUUGUGUAAAUUCAACAGAGGAUUGAGCAUCA
B12: chr1:36180537:36180567:+|3pUTR|ENSG00000116871|msi1_unk|FALSE|overlapping (ssRNA)
RNA: GGGAGUUCUACAGUCCGACGAUCCAUACACACAUAUACACUCACAGCCUCUCUGGCCUCUUCCCUUGGGGAGGGGCCACCUGUAGUAUUUGCCUUGAUUUGGUGGGGUACAGUGGAUGUGAAUACUGUAAAUAGCUUGUGCUCCAACAGAGGAUUGAGCAUCA
B13: chr1:1785892:1785993:-|3pUTR|ENSG00000078369|msi1|total|mutant (ssRNA)
RNA: GGGAGUUCUACAGUCCGACGAUCUUUACUCUCCGAAUCGCAUGCUGCCGAAAUGCUCAAAAGUGCAUAUGGGACUCAGUCCUCCGGUGUUCUUUUUCUUUUAAGAAAUAACCUCUUACAGUUGUAACCAUUGCGGCUCUGUCCCAACAGAGGAUUGAGCAUCA
B14: ENSG00000147536:stop:overlap|stop_codon|ENSG00000147536|stop_codon|NA|stop_codon (ssRNA)
RNA: GGGAGUUCUACAGUCCGACGAUCUCCGCUACGUCCUCAGCAGCUACUUGCGGUGUCGCCUCAUGAAGUUCCCAAACCAGAUCUAGAUUCUUACGUGUUUCUGAGAGUGAGAGAACGACAAGAAAACAUACUGGUAGAACCAGACAACAGAGGAUUGAGCAUCA

Target: T1, UNK ZnF1-6 (called full-length)
Experiment: nsRBNS (natural sequence RNA bind-n-seq); RBNS binding buffer (assumed for nsRBNS): 25 mM Tris pH 7.5, 150 mM KCl, 3 mM MgCl2, 0.01% Triton X-100, 500 ug/ml BSA, 20 U/ml SUPERase-In, 4 C; UNK is unkempt and MSI1 is Musashi-1; names of the RNAs are library labels; protein concentration not given here; high values mean tight binding

Going from B1 to B2, the binding signal rises from 0.488 enrichment R to 2.59 enrichment R.

Compared with B3, B4 is higher in binding signal: 1.08 enrichment R for the first, 3.82 enrichment R for the second.

First: B5
Second: B6
The binding signal of the first is higher: 0.818 enrichment R for the first, 0.568 enrichment R for the second.

Going from B7 to B8, the binding signal falls from 8.2 enrichment R to 0.662 enrichment R.

First: B9
Second: B10
The binding signal of the first is higher: 5.27 enrichment R for the first, 0.869 enrichment R for the second.

Compared with B11, B12 is lower in binding signal: 5.2 enrichment R for the first, 0.629 enrichment R for the second.

First: B13
Second: B14
The binding signal of the first is lower: 0.424 enrichment R for the first, 33.9 enrichment R for the second.
